According to a collection of fitness landscapes (doi:10.1038/s41467-024-54723-y):
In all, about 18,000 sequences were measured (“TetR repression strength (sort-seq, GFP reporter)”: median about 0.23, highest 2% from about 0.68 on). Some of the results follow.

Target: TetR (class B, Tn10) (UniProt P04483)
Experiment: TetR repression strength (sort-seq, GFP reporter) (relative to tetO2 = 1); higher = stronger repression
Details: E. coli
Method in brief: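 In LB with 50 µg/mL chloramphenicol, E. coli SIG10-MAX holding a low-copy library with eight randomized operator positions between a constitutive promoter and sfGFP, plus constitutive TetR, grew for 5 h at 37 °C. FACS then sorted 10^6 cells into 13 fluorescence bins for Illumina sequencing of each bin. Repression strength equals the top bin index plus one less the read-weighted mean bin, normalized to the unaltered operator. Values from three independent transformations were averaged when reads were ≥30 in every replicate and the CV was ≤0.5.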

Sequence of UniProt P04483 (P04483 whole entry): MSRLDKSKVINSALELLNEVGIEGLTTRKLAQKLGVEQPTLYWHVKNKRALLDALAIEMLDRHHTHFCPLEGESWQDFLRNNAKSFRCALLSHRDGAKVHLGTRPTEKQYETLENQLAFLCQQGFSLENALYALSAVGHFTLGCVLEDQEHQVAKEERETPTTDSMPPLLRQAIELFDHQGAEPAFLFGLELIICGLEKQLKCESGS

| Sequence | TetR repression strength |
| --- | --- |
| TCCCGTAGAGTGTATGAGA | 0.255 |
| TCCCGAAGAGTGCGTGAGA | 0.165 |
| TCCCCACGAGTCGGAGAGA | 0.256 |
| TCCCAGGGAGTTGCAGAGA | 0.397 |
| TCCCTGTCAGTAAACGAGA | 0.389 |
| TCCCGTAGAGTAGCAGAGA | 0.2 |
| TCCCTTGGAGTGTGAGAGA | 0.117 |
| TCCCGTAGAGTGCGTGAGA | 0.0764 |
| TCCCTTGCAGTAAGCGAGA | 0.195 |
| TCCCGGAAAGTGAACGAGA | 0.256 |
| TCCCAGTAAGTATTGGAGA | 0.201 |
| TCCCGTTGAGTCCCTGAGA | 0.323 |
| TCCCCCGAAGTATGTGAGA | 0.0891 |
| TCCCACCGAGTAGGCGAGA | 0.166 |
| TCCCGTAAAGTTGCTGAGA | 0.299 |
| TCCCCACCAGTCAATGAGA | 0.315 |
| TCCCCGGTAGTGCTAGAGA | 0.13 |
| TCCCCTGCAGTTTAGGAGA | 0.242 |
| TCCCAATTAGTTGCGGAGA | 0.29 |
| TCCCAAATAGTCAAGGAGA | 0.352 |
| TCCCCAGCAGTCCGCGAGA | 0.306 |
| TCCCTGTAAGTACGTGAGA | 0.365 |
| TCCCACCGAGTCGGTGAGA | 0.104 |
| TCCCGGTAAGTATTCGAGA | 0.175 |
| TCCCATGGAGTGGCGGAGA | 0.144 |
| TCCCGGTTAGTCCGGGAGA | 0.389 |

| Sequence | TetR repression strength |
| --- | --- |
| TCCCTTAGAGTACGGGAGA | 0.104 |
| TCCCATCCAGTCCGCGAGA | 0.318 |
| TCCCCCTTAGTGACGGAGA | 0.0565 |
| TCCCGGATAGTACTCGAGA | 0.285 |
| TCCCAGCTAGTGGGAGAGA | 0.101 |
| TCCCAAACAGTGACCGAGA | 0.434 |
| TCCCCGGCAGTTTTCGAGA | 0.218 |
| TCCCGCTGAGTGATAGAGA | 0.483 |
| TCCCGGTGAGTCTCCGAGA | 0.146 |
| TCCCGGGAAGTGTTAGAGA | 0.42 |
| TCCCGACTAGTGGTTGAGA | 0.266 |
| TCCCAATCAGTGGGTGAGA | 0.543 |
| TCCCGCGAAGTATGGGAGA | 0.254 |
| TCCCAAGGAGTCGGTGAGA | 0.135 |
| TCCCGAGCAGTAGAGGAGA | 0.121 |
| TCCCACCCAGTACTCGAGA | 0.194 |
| TCCCGGGTAGTAAAGGAGA | 0.053 |
| TCCCCCCTAGTGGACGAGA | 0.178 |
| TCCCCGTCAGTTCGGGAGA | 0.229 |
| TCCCAGATAGTCCGAGAGA | 0.459 |
| TCCCCGTAAGTGCGAGAGA | 0.614 |
| TCCCCCATAGTGTAAGAGA | 0.441 |
| TCCCGAGGAGTGAGGGAGA | 0.246 |
| TCCCAGCGAGTAGCGGAGA | 0.189 |
| TCCCGCCAAGTTCTAGAGA | 0.311 |
| TCCCGGCTAGTCGTTGAGA | 0.89 |

| Sequence | TetR repression strength |
| --- | --- |
| TCCCCTTGAGTAGGTGAGA | 0.32 |
| TCCCGTGGAGTTAGCGAGA | 0.322 |
| TCCCGGTTAGTAGGGGAGA | 0.143 |
| TCCCTGTCAGTGCAGGAGA | 0.202 |
| TCCCATGTAGTTTAGGAGA | 0.19 |
| TCCCAAAAAGTGATAGAGA | 0.582 |
| TCCCTATAAGTCGGGGAGA | 0.109 |
| TCCCCCAAAGTGTGAGAGA | 0.166 |
| TCCCTCGGAGTACGCGAGA | 0.161 |
| TCCCGTAAAGTACGGGAGA | 0.132 |
| TCCCGGGAAGTACTGGAGA | 0.298 |
| TCCCCGGAAGTCCTGGAGA | 0.365 |
| TCCCGATGAGTTATGGAGA | 0.269 |
| TCCCTATTAGTCTAAGAGA | 0 |
| TCCCGGTTAGTTGGGGAGA | 0.298 |
| TCCCAATAAGTTATAGAGA | 0.47 |
| TCCCCCTTAGTCAAAGAGA | 0.318 |
| TCCCTGACAGTCTGGGAGA | 0.155 |
| TCCCAGCAAGTCATGGAGA | 0.401 |
| TCCCGGAGAGTTACAGAGA | 0.245 |
| TCCCAGTGAGTACGTGAGA | 0.262 |
| TCCCGGCAAGTCAAGGAGA | 0.399 |
| TCCCTTGCAGTATGTGAGA | 0.109 |
| TCCCGCGCAGTGGATGAGA | 0.352 |
| TCCCGCTAAGTAACAGAGA | 0.429 |
| TCCCCGGTAGTCGAAGAGA | 0.143 |

| Sequence | TetR repression strength |
| --- | --- |
| TCCCCGTAAGTCCCCGAGA | 0.32 |
| TCCCGAGGAGTATCTGAGA | 0.403 |
| TCCCGGATAGTATTAGAGA | 0.202 |
| TCCCAGGCAGTGTATGAGA | 0.188 |
| TCCCTGTGAGTGTGAGAGA | 0 |
| TCCCGGGGAGTCACCGAGA | 0.206 |
| TCCCTCTGAGTACTTGAGA | 0.226 |
| TCCCGACAAGTCGGGGAGA | 0.215 |
| TCCCAGAGAGTGTACGAGA | 0.124 |
| TCCCACCCAGTGTAAGAGA | 0.312 |
| TCCCAGAGAGTGCGGGAGA | 0.251 |
| TCCCAGGCAGTTGACGAGA | 0.698 |
| TCCCTGAGAGTCCGTGAGA | 0.183 |
| TCCCATACAGTTGACGAGA | 0.321 |
| TCCCGGATAGTCTGGGAGA | 0.217 |
| TCCCATCAAGTTGGAGAGA | 0.381 |
| TCCCTCCCAGTATGGGAGA | 0.184 |
| TCCCTAAAAGTGACGGAGA | 0.0201 |
| TCCCGCCCAGTTGCGGAGA | 0.222 |
| TCCCGGTAAGTAGGGGAGA | 0.272 |
| TCCCTCGGAGTGGGGGAGA | 0.219 |
| TCCCTCAAAGTACGGGAGA | 0.257 |
| TCCCAGCTAGTTCATGAGA | 0.245 |
| TCCCTCTGAGTTGGGGAGA | 0.322 |
| TCCCGACTAGTGGAAGAGA | 0.336 |
| TCCCTAGCAGTTGGGGAGA | 0.0902 |

| Sequence | TetR repression strength |
| --- | --- |
| TCCCACGAAGTGCCGGAGA | 0.305 |
| TCCCAGTTAGTGGGAGAGA | 0.136 |
| TCCCTTTGAGTGTTGGAGA | 0.212 |
| TCCCGGTAAGTGCGGGAGA | 0.209 |
| TCCCAGCGAGTACGGGAGA | 0.188 |
| TCCCTGGCAGTGTCCGAGA | 0.314 |
| TCCCTAGTAGTGACGGAGA | 0.227 |
| TCCCGTTAAGTTGCTGAGA | 0.517 |
| TCCCTCATAGTCAAAGAGA | 0.455 |
| TCCCGGGTAGTCAGTGAGA | 0.145 |
| TCCCAGGTAGTAAGCGAGA | 0.225 |
| TCCCCGGCAGTATGCGAGA | 0.336 |
| TCCCTAGCAGTGAGGGAGA | 0.168 |
| TCCCGGACAGTGGGGGAGA | 0.256 |
| TCCCAGGCAGTGCCTGAGA | 0.0998 |
| TCCCTGCTAGTGAAAGAGA | 0.334 |
| TCCCTTCGAGTGGGTGAGA | 0.47 |
| TCCCATACAGTGGGTGAGA | 0.196 |
| TCCCTGGCAGTGGGCGAGA | 0.144 |
| TCCCTGACAGTAGTCGAGA | 0.128 |
| TCCCTGATAGTGGGGGAGA | 0.0581 |
| TCCCCTTGAGTGCACGAGA | 0.425 |
| TCCCGGTAAGTCTCGGAGA | 0.256 |
| TCCCGGCCAGTAACCGAGA | 0.327 |
| TCCCTCGGAGTACGAGAGA | 0.137 |
| TCCCATCGAGTGTCAGAGA | 0.253 |

| Sequence | TetR repression strength |
| --- | --- |
| TCCCGCAAAGTCCAAGAGA | 0.488 |
| TCCCCCGCAGTGCGTGAGA | 0.0304 |
| TCCCGGTGAGTGTAGGAGA | 0.156 |
| TCCCCAGGAGTCCTAGAGA | 0.235 |
| TCCCATGCAGTGAGGGAGA | 0.441 |
| TCCCATTTAGTCAGGGAGA | 0.191 |
| TCCCTAGGAGTCAGGGAGA | 0.0522 |
| TCCCGCTGAGTCCGGGAGA | 0.401 |
| TCCCGGCAAGTCAGTGAGA | 0.184 |
| TCCCTCGTAGTATGTGAGA | 0.282 |
| TCCCTTTTAGTAAGTGAGA | 0.148 |
| TCCCCGATAGTATGCGAGA | 0.157 |
| TCCCTGTGAGTGACGGAGA | 0.115 |
| TCCCTCCAAGTTGCAGAGA | 0.424 |
| TCCCGCGCAGTTCGAGAGA | 0.356 |
| TCCCGGGAAGTACACGAGA | 0.0718 |
| TCCCGCTAAGTAGCTGAGA | 0.33 |
| TCCCGAACAGTTCTAGAGA | 0.207 |
| TCCCTTTAAGTGGTCGAGA | 0.104 |
| TCCCTTGGAGTGCCAGAGA | 0.296 |
| TCCCATCGAGTCCGTGAGA | 0.443 |
| TCCCTGTTAGTACGCGAGA | 0.182 |
| TCCCAGAGAGTACCTGAGA | 0.128 |
| TCCCATCTAGTCACGGAGA | 0.181 |
| TCCCGATAAGTCTGGGAGA | 0.317 |
| TCCCTGGTAGTAGAAGAGA | 0.331 |

| Sequence | TetR repression strength |
| --- | --- |
| TCCCCGCCAGTCGGTGAGA | 0.179 |
| TCCCACGGAGTCTCGGAGA | 0.166 |
| TCCCGTGCAGTGTTAGAGA | 0.202 |
| TCCCATAGAGTGGTGGAGA | 0.198 |
| TCCCTCGTAGTGCCGGAGA | 0.133 |
| TCCCGAGTAGTCGCTGAGA | 0.319 |
| TCCCATCGAGTGATCGAGA | 0.294 |
| TCCCCATTAGTTCTCGAGA | 0.407 |
| TCCCAACCAGTCGGAGAGA | 0.0864 |
| TCCCCTAGAGTGGGGGAGA | 0.195 |
| TCCCTATAAGTCCGCGAGA | 0.331 |
| TCCCCTCAAGTTGAAGAGA | 0.124 |
| TCCCGCGCAGTGCTAGAGA | 0.282 |
| TCCCTCTTAGTTGATGAGA | 0.104 |
| TCCCTAAGAGTATTGGAGA | 0.271 |
| TCCCTGTGAGTCCTCGAGA | 0.489 |
| TCCCGGGGAGTCAGGGAGA | 0.219 |
| TCCCGCTGAGTTACGGAGA | 0.652 |
| TCCCAAGGAGTCTTGGAGA | 0.102 |
| TCCCCGGAAGTGGGGGAGA | 0.27 |
| TCCCGCGTAGTTTTTGAGA | 0.264 |
| TCCCTTGTAGTGGGAGAGA | 0.0318 |
| TCCCAACGAGTCATGGAGA | 0.199 |
| TCCCGCCGAGTGCCCGAGA | 0.406 |
| TCCCTCAAAGTCCAGGAGA | 0.237 |
| TCCCTTTGAGTGATGGAGA | 0.133 |

| Sequence | TetR repression strength |
| --- | --- |
| TCCCAACAAGTGTTCGAGA | 0.0254 |
| TCCCCCGGAGTGCGGGAGA | 0.0954 |
| TCCCTGCAAGTCCGAGAGA | 0.104 |
| TCCCCGCGAGTGACAGAGA | 0.569 |
| TCCCGAGGAGTGGGTGAGA | 0.351 |
| TCCCGGGGAGTTCCGGAGA | 0.18 |
| TCCCGTACAGTCATCGAGA | 0.0915 |
| TCCCCCTAAGTGGGCGAGA | 0.265 |
| TCCCGTCGAGTACCCGAGA | 0.0284 |
| TCCCGGTTAGTATAGGAGA | 0.141 |
| TCCCTGCCAGTTCCAGAGA | 0.368 |
| TCCCGAAGAGTTGTTGAGA | 0.233 |
| TCCCGTCAAGTAATCGAGA | 0.0648 |
| TCCCCGTGAGTGAAGGAGA | 0.297 |
| TCCCCAGGAGTTCGGGAGA | 0.0537 |
| TCCCGATAAGTACTGGAGA | 0.13 |
| TCCCGAAGAGTTATGGAGA | 0.272 |
| TCCCACGAAGTGAGGGAGA | 0.157 |
| TCCCTGCTAGTTGAGGAGA | 0.3 |
| TCCCAAATAGTGCGTGAGA | 0.258 |
| TCCCTAAAAGTGGCAGAGA | 0.0494 |
| TCCCCCTAAGTGCAAGAGA | 0.426 |
